Measurements as given in PubChem BioAssay (NCI).
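Five compound concentrations were applied to cells in 96-well plates for 48 hours; endpoints were derived by simple linear interpolation of the resulting dose-response curve. The concentration for 50% growth inhibition is given as GI50.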 Some entries of the source have several records that differ or are many. This is not the full list of results. There may be further records. For some assays here: A record mostly stands for its own series of concentrations, which the source does not state; a value can be the end of its range. For some assays here: Values that stand side by side are repeated measurements (runs, samples, wells, individuals or studies). Brackets tell where a record comes from. Letters hold for one entry only.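 TGI denotes the concentration required for complete inhibition of growth.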

Assays:
Assay in all cases: growth of human tumour cells (NCI), 48 h
[1] = test system: A549 NSCLC
[2] = test system: COLO 205 colon
[3] = test system: EKVX NSCLC
[4] = test system: HCT-116 colon
[5] = test system: HL-60(TB) leukemia
[6] = test system: HOP-92 NSCLC
[7] = test system: KM12 colon
[8] = test system: LOX IMVI melanoma
[9] = test system: NCI-H226 lung
[10] = test system: OVCAR-5 ovarian
[11] = test system: CAKI-1 renal
[12] = test system: HCC-2998 colon
[13] = test system: SK-MEL-2 melanoma
[14] = test system: TK-10 renal
[15] = test system: UACC-62 melanoma

Compound	GI50 [1]	TGI [2]	TGI [3]	GI50 [4]	TGI [5]	TGI [6]	TGI [7]	TGI [8]	GI50 [9]	GI50 [10]	TGI [10]	TGI [11]	TGI [12]	TGI [13]	GI50 [14]	TGI [15]
CC1OC(=O)C(C(C)C)NC(=O)C(C(C)C)OC(=O)C(C(C)C)NC(=O)C(C)OC(=O)C(C(C)C)NC(=O)C(C(C)C)OC(=O)C(C(C)C)NC(=O)C(C)OC(=O)C(C(C)C)NC(=O)C(C(C)C)OC(=O)C(C(C)C)NC1=O (configuration not stated)	< 0.1 nM [1 test] and 4.45 nM [mean of 4 tests]	< 0.1 nM and 10.1 nM	< 0.1 nM and 694 nM	< 0.1 nM [1 test] and 2.5 nM [mean of 3 tests]	< 0.1 nM and 25 nM	< 0.1 nM and 3.44 nM	158 nM and 4.09 µM	0.161 nM and 667 nM	0.107 nM [1 test] and 4.68 nM [mean of 3 tests]	< 0.1 nM [1 test] and 2.5 nM [mean of 4 tests]	202 nM [1 test] and 8.4 µM [mean of 4 tests]					
Cc1c2ccncc2c(C)c2c1[nH]c1ccc(Cl)cc12					6.43 µM and > 100 µM							20.3 µM [1 test] and 1.15 µM [mean of 4 tests]				
O=C(NOCCO)c1cc(CN2OCCCC2=O)c(F)c(F)c1Nc1ccc(I)cc1F													450 nM [sample A, mean of 2 tests] and > 10 µM [sample B, mean of 2 tests]	2.24 µM [sample A, 1 test] and 112 nM [sample B, mean of 2 tests]	1.28 µM [sample A, mean of 2 tests] and 11 nM [sample B, mean of 2 tests]	629 nM [sample A, mean of 2 tests] and 16.2 nM [sample B, 1 test]
